# Experimental data from ChEMBL document CHEMBL4888484, “Replenishing the malaria drug discovery pipeline: Screening and hit evaluation of the MMV Hit Generation Library 1 (HGL1) against asexual blood stage Plasmodium falciparum ,using a nano luciferase reporter read-out” (2022).
# Screen size: about 150,000 compounds; about 540 (0.36%) showed an effect of 50% or more. The list shows a part of the results.
# Test system: Plasmodium falciparum
# Assay: Primary screen in NF54 nanoGlo assay, in single point, at 2uM, 72h; a lower Z score goes with more inhibition
# Assay type: functional, Erythrocyte
# Details: timepoint 72 hour
SMILES,% Inhibition [%],Z score
O=C(NCCCN1CCCC1=O)c1nnc(Cc2ccccc2Cl)o1,-2,0.3
CC(=O)N1CCC(CC(=O)Nc2ccc3c(c2)ncn3C)(N2Cc3ccccc3C2=O)CC1,-10,1.46
CCN1C(=O)[C@@H]2CC3(CCN(C(=O)CCc4c(C)nn(C)c4C)CC3)CN2C1=O,-5,0.65
N[C@H]1CN(Cc2[nH]c3ccccc3c2Cl)C[C@@H]1O,5,-0.73
Cc1c(C#N)c(NC(=O)CN(C)S(C)(=O)=O)n2ccccc12,-7,1.1
COc1ccc(S(=O)(=O)Nc2ccc(Nc3ccc(C)nn3)cc2)c(C)c1C,-10,1.81
C[C@@H]1CN(C(=O)c2ccccc2C#N)CC[C@@]1(O)C1CCOCC1,5,-0.62
c1ccc(-n2ncnc2[C@@H]2COCCN2)cc1,31,-1.03
CCCn1nccc1C(=O)NCCCn1ncc2c(C)cccc21,33,-4.47
Cc1ccc(Nc2nc(C)c(C(=O)NCc3cccc(C(F)(F)F)c3)s2)c(C)c1,2,-0.35
O=C(O)C1CN(C(=O)C2COc3ccccc3C2)c2ccccc2O1 (stereo unspecified),3,-0.31
COc1ccc([C@@H]2CCCN2c2nnc(-c3ccccn3)s2)cc1,-13,2.42
CC1(C)CN(C(=O)C2(c3ccccc3)CCOCC2)C1(C)C,31,-3.5
CN(CCF)c1cc(=O)n(C)c(=O)n1C,-9,0.89
CN(C)[C@H]1CCN(C(=O)c2cc(F)cc(Cl)c2)C[C@H]1CCCO,-4,0.71
O[C@@H]1C[C@@](CNCc2cccc(Cl)c2)(COc2cccnc2)C[C@@H]1O,-9,1.17
O=C1CO[C@H]2CCN(C(=O)NCCc3ccc(Cl)s3)C[C@@H]2N1,-1,0.16
CCn1cc(Br)c(C(=O)N[C@@H](C)c2ncc(C)s2)n1,-12,2.4
CCCCNC(=O)N[C@@H](C)c1nccc(N)n1,-6,0.85
C=CCN(C(=O)[C@@H]1CCCO1)c1nc2c(s1)CCCC2,-3,0.48
CCOC(=O)N1CCN(c2nc3cc(Cl)ccc3cc2CN(C(=O)c2ccc3c(c2)OCO3)C2CC2)CC1,1,-0.07

SMILES,% Inhibition [%],Z score
O=C(Nc1ccccc1C(F)(F)F)N1C[C@@H]2NCCO[C@H]2C1,-2,0.37
O=C(Cn1nnc2ccccc21)N(Cc1ccccc1)C1(C(=O)Nc2ccc3c(c2)OCO3)CCCCC1,50,-5.71
Cc1c(C(=O)N2CCC[C@H]2CO)sc2ncnc(NCc3ccccc3F)c12,-15,1.97
CC1CCN(Cc2ncc[nH]2)CC1n1ccnc1 (stereo unspecified),-13,1.96
CCCOc1ccc(CN2CC3(C2)CN(C)C(=O)O3)cc1,1,-0.18
Cc1cc(C)n([C@@H](C)C(=O)N(Cc2ccccc2)C2CC2)n1,7,-0.78
O=C1COc2ccc(-c3ccc(C(=O)NC[C@H]4CCCO4)cc3)cc2N1,-16,1.39
O=C([C@@H]1COc2ccccc2O1)N1CCN(c2ccc(-n3cncn3)nn2)CC1,11,-1.36
O=C(CC1(N2Cc3ccccc3C2=O)CCOCC1)N1CCN(c2cccc(Cl)c2)CC1,-13,1.64
C[C@@H](C(=O)N(C)CCCc1nccn1C)N(C)C,-6,1.11
C=CC[C@@H](C(=O)NCc1ccc(O)c(OC)c1)N(C)C,3,-0.45
C=CCN1C[C@H]2CN(C(=O)Cc3ccc(C)c(F)c3)C[C@@]2(C(=O)O)C1,6,-1.07
Cc1n[nH]nc1C(=O)N[C@H]1C[C@@H](c2cc(=O)[nH]c(C3CC3)n2)C1,-16,1.8
Cc1cc(C(=O)N2CCN(S(=O)(=O)c3ccccc3)CC2)on1,-2,0.29
Cc1ccc(-n2nc(C(=O)NC3CC3)c(=O)n(Cc3cccc(C)c3)c2=O)cc1,-10,1.56
Cn1cc(NC(=O)NCC2CC23CCc2ccccc23)cn1 (stereo unspecified),-14,1.94
Cn1ccnc1CN1CCCC12CCN(c1ccc(C(F)(F)F)cn1)CC2,15,-2
O=C(c1ccn(C(F)F)n1)N(CCc1ccccc1)Cc1cccnc1,-16,1.6
Cc1nn(C)c(C)c1S(=O)(=O)NC[C@H]1Cn2cccc2CN1Cc1ccccc1,-1,0.22
O=c1[nH]c(N2CCOCC2)nc2nccc(-c3ccc(F)cc3)c12,-3,0.43
O=S(=O)(Cc1ccccc1)NC[C@@H](c1ccsc1)N1CCCCCC1,-7,0.88

SMILES,% Inhibition [%],Z score
COc1ccc(C(C)=O)cc1CN1CCCN(C2CC2)CC1,-1,0.11
O=C(NC1CCN(CC(F)(F)F)CC1)c1cccc2c1OCO2,2,-0.34
O=C(Cn1nc2c3ccccc3ncn2c1=O)NCCc1ccc(Cl)cc1,-3,0.42
CCC(NC1CCCC(C(=O)NC(C)C)C1)c1cnn(C)c1 (stereo unspecified),-1,0.09
CCCc1nc(C(=O)N2CCc3[nH]c4c(Cl)cccc4c3C2)cs1,11,-1.49
c1csc(Cn2ccnc2-c2ccnc3ccccc23)c1,-7,0.91
Cc1nc(CNC(=O)[C@H]2CCCN2S(=O)(=O)c2cccc(C(F)(F)F)c2)cs1,-4,0.55
CCOc1cc(Cl)ccc1NCc1noc([C@@H]2COc3ccccc3O2)n1,-6,0.56
Cc1nc(N2CCN(C)CC2)cc(N2CCN(C(=O)c3ccccc3Cl)CC2)n1,0,0.05
Cc1ncnc(CN2CCOCC2)c1O,-9,1.16
CCCCn1nc(CC(N)=O)nc1-c1cn2ccsc2n1,6,-1.03
Cc1ccc(OC2(C(=O)O)CCN(CCCc3ccccc3)CC2)cc1,-12,1.4
CCc1cnc(C)nc1N[C@H](c1ccccn1)C(C)C,-5,0.91
Cc1nnsc1C(=O)N1CCn2nccc2C1,-8,1.19
COc1cccc(NC(=O)N[C@H]2[C@H](O)[C@@H](N3CCN(c4ccccc4)CC3)[C@@H]3OC[C@H]2O3)c1,1,-0.09
Nc1nc([C@H]2CCOC2)cc(N2CCC(c3nc4ccccc4o3)CC2)n1,4,-0.59
O=C1CC(c2nc(C3CCOC3)no2)c2ccccc2N1 (stereo unspecified),3,-0.34
CN(C)c1nn(CC(=O)Nc2ccc(F)cc2)cc1-c1ccccc1,7,-0.82
C=CCn1cnc2c1c(=O)n(C1CC1)c(=O)n2-c1ccccc1C,4,-0.54
c1ccc2oc(-c3cc(-c4ccc5c(c4)OCO5)nc4ccc5ccccc5c34)cc2c1,-5,1.02
CCCNc1ncc(CN2CC[C@](C)(O)[C@@H](O)C2)cn1,5,-0.74

SMILES,% Inhibition [%],Z score
CC#CC(=O)N[C@H]1CC(=O)N(CC(C)(C)C)C1,9,-1.69
CC(C)N1C[C@@H]2C[C@H]1C(=O)NC[C@@H]1CCC[C@@H](CCOc3ccccc3C(=O)N2)O1,-13,2.06
COCCn1c(N)c(C(=O)CN2CC(C)OC(C)C2)c(=O)[nH]c1=O (stereo unspecified),-11,1.66
Cc1cccc(OC[C@@H](O)CN(C(=O)NCc2ccc3c(c2)OCO3)C(C)C)c1,6,-0.75
COC(=O)c1cn([C@H]2C[C@@H](C(=O)NCCc3ccc(F)cc3)N(C(C)C)C2)nn1,16,-2.12
CC(C)NC(=O)Cn1cnc2c(-c3ccc(Cl)cc3)cn(C)c2c1=O,4,-0.57
COc1ccccc1-c1nc(-c2cccc(NC(=O)Nc3ccc(F)cc3)c2)no1,-4,0.45
CCOc1ccc(NC(=O)c2cccc3c(=O)c4c([nH]c23)CCC4)cc1,-7,1.39
CC1=C(C(=O)N2CCN(c3cnccn3)CC2)OCCO1,-14,2.42
CC(C)C[C@H](C)N1CCN(/C(=N/c2cccc(C(=O)O)c2)NCc2ccccc2)CC1,-21,1.97
Cc1sc(N)nc1Cc1ccccc1,-19,1.72
Cc1nnc(CN(C)CCCn2cccn2)s1,-9,1.48
CC(C)N(CCO)C(=O)Nc1cnn(C)c1,-4,0.52
COc1ccc(NC(=O)Cn2c(COc3ccccc3)nc3ccccc32)cc1Cl,3,-0.43
CN(C)CCN(C)S(=O)(=O)c1c[nH]c(C(=O)N2CCCC2)c1,-7,0.8
O=C(C1CCC1)N1CCC[C@H]1c1nc2ccccc2s1,-2,0.24
O=C(NC[C@H]1CCCO1)N1CCN(c2nccs2)C(=O)C1,33,-0.8
c1ccc2c(OCC3CCOCC3)nccc2c1,-8,1.02
COc1ccc(NC(=O)c2c(C)oc3nc(C)nc(N4CCOCC4)c23)cc1OC,-6,0.98
O=C(COc1ccc(F)cc1)c1ccc2c(c1)N(CC(=O)N1CCOCC1)C(=O)CO2,-8,1.06
